± gives the standard deviation. The entries are a selection whose mix differs from that of the whole data set.

For the test, the system named is MIWI (PIWIL1) piRISC loaded with L1MC piRNA (30 nt). The test is described as follows: pre-steady-state target cleavage rate (min^-1); MIWI and MILI are mouse PIWI proteins and EfPiwi is from a freshwater sponge; tags in brackets are library labels; higher = faster piRNA-guided slicing of the target. Conditions: guide: L1MC piRNA 5'p-UAACUAAAUACUAUGCAAGCUGUAGGUCCU
The essentials: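 A transcribed, DNA-blocked target RNA library (0.1 nM) and 1 nM active affinity-purified piRISC bearing one synthetic guide were incubated in HEPES–potassium acetate buffer at 33 °C for 0–8 or 0–960 min, either with or without 500 nM GTSF1 partner protein. Uncleaved targets were sequenced, normalised to depth and to weakly complementary targets, and pooled over three trials, with k3 capped at 0.0001 min^-1. The pre-steady-state cleavage rate was derived with a burst-and-steady-state fit.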

Where [1] appears, read: auxiliary factor: 500 nM mouse GTSF1.
The mark [2] stands for this setting: auxiliary factor: none (no GTSF1).

As for AGGACCUACACCUUGCAUAGAAUUUAGUUA, the “pre-steady-state target cleavage rate” value under setting [1] was 0.511 ± 0.082 and the “pre-steady-state target cleavage rate” value under setting [2] worked out at 0.0182 ± 0.0059.

As to UCCUGGAUCAGGUUGCAUAGUAUUUUGUUA, the “pre-steady-state target cleavage rate” value amounted to 0.302 ± 0.024 under setting [1] and 0.00654 ± 0.0026 under setting [2].

Regarding UCCUGCUACAGCAUGCAUAGAAUUUAGUUA, the “pre-steady-state target cleavage rate” value is 0.351 ± 0.047 under setting [1] and 0.009 ± 0.0029 under setting [2].

Regarding UCCUGGAUGUGCUUGCAUAGUAUCUUAGUUA, the “pre-steady-state target cleavage rate” value is, setting by setting: under setting [1], 0.161 ± 0.019; under setting [2], 0.0126 ± 0.0032.

Consider AGGACCUACAGCGUGCAUAGUAUUUAGUUA, for which the “pre-steady-state target cleavage rate” value was 1.34 ± 0.054 under setting [1] and 0.0658 ± 0.011 under setting [2].

Turning to UCCUGGAUCAGCUUGCAUAGAAUUUAGAUA, the “pre-steady-state target cleavage rate” value reads like this: under setting [1], 0.124 ± 0.026; under setting [2], 0.0115 ± 0.005.

Turning to UCCUCGUAGAGCUUGCAUAGUAUUUAGUUA, the “pre-steady-state target cleavage rate” value reads like this: under setting [1], 1.02 ± 0.048; under setting [2], 0.0374 ± 0.0076.

In the case of AGGACCUACAGCUUGCAUAGAAUUUAGUUA, the “pre-steady-state target cleavage rate” value is 0.559 ± 0.044 under setting [1] and 0.0408 ± 0.011 under setting [2].

As to UCCUGGAUGAGCUUGCAUAGUAUGUAGUUA, the “pre-steady-state target cleavage rate” value is, setting by setting: under setting [1], 0.358 ± 0.046; under setting [2], 0.0221 ± 0.005.

AGGACCUACAGCUUGCAAAGUAUUUACAAA: the “pre-steady-state target cleavage rate” value came out at 0.321 ± 0.041 under setting [1] and 0.00586 ± 0.0026 under setting [2].

With UCCUGGUUCAGCUUGCAUACUAUUUAGUUA, the “pre-steady-state target cleavage rate” value runs as follows: under setting [1], 0.232 ± 0.026; under setting [2], 0.02 ± 0.005.

UCCUCCUACAGCUAGCAUAGUAUUUACUUA: the “pre-steady-state target cleavage rate” value is 0.395 ± 0.034 under setting [1] and 0.0115 ± 0.0024 under setting [2].

Consider UCCACCUACAGCUUGCAAAGUAUUUAGAUA, for which the “pre-steady-state target cleavage rate” value under setting [1] came to 0.372 ± 0.053 and the “pre-steady-state target cleavage rate” value under setting [2] came to 0.011 ± 0.0024.

For the sequence AGGACCUACAGCUUGGAUAGUAUUUAGAAA, the “pre-steady-state target cleavage rate” value is, setting by setting: under setting [1], 0.335 ± 0.038; under setting [2], 0.011 ± 0.0029.

For UCGACCUACAGCUUGCUAUGUAUUUAGUUA, the “pre-steady-state target cleavage rate” value under setting [1] amounted to 0.152 ± 0.015 and the “pre-steady-state target cleavage rate” value under setting [2] stood at 0.00452 ± 0.0012.

Turning to UCCUGGAUGUGCUUGCAAACUAUUUAGUUA, the “pre-steady-state target cleavage rate” value was found to be 0.00627 ± 0.003 under setting [1] and 0.00254 ± 0.0022 under setting [2].

Take UCCUGGAUCAGCUUGCUUAGUAUUUACUUA: the “pre-steady-state target cleavage rate” value runs as follows: under setting [1], 0.492 ± 0.038; under setting [2], 0.0215 ± 0.0046.

For UCCUCCUACAGCUUGCAUAGUAAUUUGUUA, the “pre-steady-state target cleavage rate” value by setting is: under setting [1], 0.352 ± 0.032; under setting [2], 0.0121 ± 0.0032.

Consider UCCAACCUACAGCUUGCAUAGUAUUUAGUUA, for which the “pre-steady-state target cleavage rate” value by setting is: under setting [1], 1.05 ± 0.037; under setting [2], 0.055 ± 0.0073.

Consider UCCUGGAACAGCUAUGCAUAGUAUUUAGUUA, for which the “pre-steady-state target cleavage rate” value amounted to 0.689 ± 0.043 under setting [1] and 0.0215 ± 0.0054 under setting [2].

For UCCUGGAUGUCCUUGCAUAGUAUUUUGUUA, the “pre-steady-state target cleavage rate” value under setting [1] amounted to 0.0341 ± 0.0067 and the “pre-steady-state target cleavage rate” value under setting [2] amounted to 0.00633 ± 0.0022.

On to UCCUGGAUGAGCUUGCAUAGUAUGUUAGUUA, for which the “pre-steady-state target cleavage rate” value runs as follows: under setting [1], 0.377 ± 0.033; under setting [2], 0.0117 ± 0.0036.

For the sequence UCCUCCUACAGCUUGCAUAGAAUUUAGAUA, the “pre-steady-state target cleavage rate” value worked out at 0.189 ± 0.03 under setting [1] and 0.00879 ± 0.0022 under setting [2].

Take UCCUGGAUGUGCUUGCAUAGUAUUUCGUUA: the “pre-steady-state target cleavage rate” value stood at 0.0898 ± 0.015 under setting [1] and 0.015 ± 0.0034 under setting [2].

Turning to UCCUGGAUGUGCAUUGCAUAGUAUUUAGUUA, the “pre-steady-state target cleavage rate” value runs as follows: under setting [1], 0.223 ± 0.023; under setting [2], 0.0111 ± 0.0032.

On to AGGACCUACAGGAAGCAUAGUAUUUAGUUA, for which the “pre-steady-state target cleavage rate” value came out at 0.977 ± 0.08 under setting [1] and 0.0104 ± 0.0029 under setting [2].

Turning to UGGACCUACACGAUGCAUAGUAUUUAGUAA, the “pre-steady-state target cleavage rate” value is 0.51 ± 0.05 under setting [1] and 0.00265 ± 0.002 under setting [2].

As for UCCUGCUAGAGCUUGCAUAGUAUAUAGUUA, the “pre-steady-state target cleavage rate” value runs as follows: under setting [1], 0.378 ± 0.044; under setting [2], 0.0138 ± 0.0038.

UCCACCUACUGCUUGCAUAGUAUUUAGAUA: the “pre-steady-state target cleavage rate” value by setting is: under setting [1], 0.253 ± 0.043; under setting [2], 0.0104 ± 0.0021.

With UCGACCUACAGCUUGUCAUAGUAUUUAGUUA, the “pre-steady-state target cleavage rate” value came out at 0.742 ± 0.083 under setting [1] and 0.00458 ± 0.0029 under setting [2].

With UGGACGUACAGGUUGCAUAGUAUUUAGUUA, the “pre-steady-state target cleavage rate” value reads like this: under setting [1], 0.981 ± 0.046; under setting [2], 0.0521 ± 0.0089.

Turning to UCCUGCUACAGCUAGCAUAGUAUUAAGUUA, the “pre-steady-state target cleavage rate” value under setting [1] was determined as 0.855 ± 0.059 and the “pre-steady-state target cleavage rate” value under setting [2] is 0.00433 ± 0.0021.

As for UCCUGCUACAGCUUGCAUACUAUUAAGUUA, the “pre-steady-state target cleavage rate” value runs as follows: under setting [1], 0.187 ± 0.021; under setting [2], 0.0109 ± 0.0027.

Regarding UCCUGGUAGAGCUUGGAUAGUAUUUAGUUA, the “pre-steady-state target cleavage rate” value is 0.481 ± 0.042 under setting [1] and 0.028 ± 0.0069 under setting [2].

On to UCCUGCUACAGCUUGCAUAGUAUUCAGUUA, for which the “pre-steady-state target cleavage rate” value came to 0.601 ± 0.047 under setting [1] and 0.0188 ± 0.0045 under setting [2].

Turning to UCCUGGAUGUCCUUGCAUAGUAUUUGGUUA, the “pre-steady-state target cleavage rate” value was 0.0543 ± 0.0099 under setting [1] and 0.0099 ± 0.0026 under setting [2].

Consider UCCUGCUACAGCUUGCAUGUAUUUAGUUA, for which the “pre-steady-state target cleavage rate” value by setting is: under setting [1], 0.413 ± 0.054; under setting [2], 0.00516 ± 0.0026.

UCCUGCUACAGCUUGCAUACUAUUUACUUA: the “pre-steady-state target cleavage rate” value came to 0.157 ± 0.022 under setting [1] and 0.0211 ± 0.0049 under setting [2].

As for UCCUGGAUCUCCUUGCAUAGUAUUUAGUAA, the “pre-steady-state target cleavage rate” value reads like this: under setting [1], 0.284 ± 0.041; under setting [2], 0.00848 ± 0.0024.

For UCCUGGUAGUGCUUGCAUAGUAUUUAGUAA, the “pre-steady-state target cleavage rate” value was 0.368 ± 0.042 under setting [1] and 0.0162 ± 0.0047 under setting [2].

In the case of UCGACGUAGAGCUUGCAUAGUAUUUAGUUA, the “pre-steady-state target cleavage rate” value is 1.11 ± 0.046 under setting [1] and 0.0423 ± 0.0084 under setting [2].

With ACGACCUACAGCUUGCAUAGUAUUUAGAUA, the “pre-steady-state target cleavage rate” value by setting is: under setting [1], 0.62 ± 0.044; under setting [2], 0.0521 ± 0.011.

Take UCGACCUACAGCUUGCUUAGUAUUAAGUUA: the “pre-steady-state target cleavage rate” value reads like this: under setting [1], 0.474 ± 0.036; under setting [2], 0.0101 ± 0.0029.

UCGAGCUACAGCUAGCAUAGUAUUUAGUUA: the “pre-steady-state target cleavage rate” value under setting [1] was found to be 1.19 ± 0.085 and the “pre-steady-state target cleavage rate” value under setting [2] was determined as 0.0195 ± 0.0042.

Regarding UCCUCCAUGAGCUUGCAUAGUAUUUACAAA, the “pre-steady-state target cleavage rate” value runs as follows: under setting [1], 0.118 ± 0.025; under setting [2], 0.00268 ± 0.002.

UCCUGGAUGUCCUUGCAUAGUAAAUAGUUA: the “pre-steady-state target cleavage rate” value was determined as 0.00551 ± 0.0036 under setting [1] and 0.00317 ± 0.0029 under setting [2].

On to UCCUGCUACAGCUUGCAUAGUAUAAAGUAA, for which the “pre-steady-state target cleavage rate” value under setting [1] is 0.187 ± 0.025 and the “pre-steady-state target cleavage rate” value under setting [2] is 0.00455 ± 0.0018.

On to UGGACCUACAGCUUGCAUAGUUUUAAGUUA, for which the “pre-steady-state target cleavage rate” value is 0.198 ± 0.016 under setting [1] and 0.0159 ± 0.0045 under setting [2].

With UCCUGGAUGUCGUUGCAUAGUAUUUAGUUUA, the “pre-steady-state target cleavage rate” value under setting [1] came to 0.022 ± 0.0057 and the “pre-steady-state target cleavage rate” value under setting [2] came to 0.00499 ± 0.003.

Turning to UCGACCUACAGCUUGAUAGUAUUUAGUUA, the “pre-steady-state target cleavage rate” value was determined as 1.08 ± 0.067 under setting [1] and 0.00731 ± 0.0024 under setting [2].

As to UGCACCUACUGCUUGCAUAGUAUUUAGUUA, the “pre-steady-state target cleavage rate” value under setting [1] was 1.16 ± 0.097 and the “pre-steady-state target cleavage rate” value under setting [2] was determined as 0.0725 ± 0.014.

As to UCCUGCUACUGCUUGCAUAGUAUUUAGUAA, the “pre-steady-state target cleavage rate” value reads like this: under setting [1], 0.182 ± 0.03; under setting [2], 0.00963 ± 0.0018.

UGGACGAUCAGCUUGCAUAGUAUUUAGAAA: the “pre-steady-state target cleavage rate” value reads like this: under setting [1], 0.499 ± 0.048; under setting [2], 0.0141 ± 0.0042.

As for UCCUCCUUCAGCUUGCAUAGUAUUUAGAAA, the “pre-steady-state target cleavage rate” value is 0.316 ± 0.041 under setting [1] and 0.00389 ± 0.002 under setting [2].

As to UCCUCCUACAGCUUGCAUAGUACUUAGUUA, the “pre-steady-state target cleavage rate” value by setting is: under setting [1], 0.947 ± 0.033; under setting [2], 0.041 ± 0.0077.

Take UCCACCUACAGCUUGCAUAGUUUAUAGUUA: the “pre-steady-state target cleavage rate” value was 0.145 ± 0.024 under setting [1] and 0.00715 ± 0.0029 under setting [2].

Turning to UGCACCUACAGCUUGCAUAGUAUUUAGUAA, the “pre-steady-state target cleavage rate” value under setting [1] was found to be 1.17 ± 0.11 and the “pre-steady-state target cleavage rate” value under setting [2] turned out to be 0.0465 ± 0.0097.

On to UCGACCUACAGCUUGCAUAGUAUUUUAGUUA, for which the “pre-steady-state target cleavage rate” value by setting is: under setting [1], 1.21 ± 0.053; under setting [2], 0.0302 ± 0.0073.

Take UCCUGCUACACCUAGCAUAGUAUUUAGUUA: the “pre-steady-state target cleavage rate” value under setting [1] worked out at 0.717 ± 0.061 and the “pre-steady-state target cleavage rate” value under setting [2] was 0.00802 ± 0.0017.

Regarding UCGACCUACAGGAUGCAUAGUAUUUAGUAA, the “pre-steady-state target cleavage rate” value reads like this: under setting [1], 0.952 ± 0.077; under setting [2], 0.0079 ± 0.0021.

These data come from the supplement of paper PMC10338343.
